{"source": "PubChem BioAssay AID485294", "about": "(National Center for Advancing Translational Sciences (NCATS), 2010)", "note": "Out of some 370,000 compounds screened, about 150 (0.041%) were called active. Inconclusive results, whose numbers are uncertain, are shown with a selection of clear calls. Calls follow the shape of the dose curve; as a rule, active = well fitted inhibition curve with a large enough effect; inconclusive = small, poorly fitted or top-dose-only effect; inactive = flat fitted curve, though single readings scatter. No potency is given beside an inconclusive call; the fits are too rough. Potency is read from the fitted curve at half-maximal effect; tags tell the direction and shape of the fitted curve.", "data": [{"target": "Beta-lactamase (Escherichia coli (strain K12)) (UniProt P00811)", "sequence (P00811 whole entry, looked up)": "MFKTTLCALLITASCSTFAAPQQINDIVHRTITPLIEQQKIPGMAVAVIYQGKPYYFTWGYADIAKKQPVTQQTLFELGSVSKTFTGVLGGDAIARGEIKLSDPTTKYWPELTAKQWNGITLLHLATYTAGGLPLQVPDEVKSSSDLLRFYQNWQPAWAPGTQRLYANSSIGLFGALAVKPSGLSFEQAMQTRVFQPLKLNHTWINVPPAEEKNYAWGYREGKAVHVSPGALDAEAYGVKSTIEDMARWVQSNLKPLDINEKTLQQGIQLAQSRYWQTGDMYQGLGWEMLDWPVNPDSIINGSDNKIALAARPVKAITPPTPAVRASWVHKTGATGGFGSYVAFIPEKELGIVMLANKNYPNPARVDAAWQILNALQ", "assay": "qHTS Inhibitors of AmpC Beta-Lactamase (assay with detergent); also: nearly all actives have a fitted effect of over 25% in size;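 as to activity change, negative = inhibition: 0% = no-compound wells and -100% = no-enzyme wells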", "settings": "AmpC hydrolysis of nitrocefin, absorbance 480 nm, 0.01% Triton; activity change, negative = inhibition: at 114 µM (top of the series)", "method_in_brief": "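20 mM phosphate pH 7.0 + 0.01% (detergent screen) or 0.0001% Triton X-100; 5.3 nM AmpC reagent; cpd preinc 15 min RT; nitrocefin (800 uM stock) to start; A480 q20 s × 4 min; Activity was normalised to no-enzyme and no-compound control wells.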", "values": [{"smiles": "O=C(Nc1ccc(N2CCN(C(=O)c3ccccc3)CC2)c(Cl)c1)c1ccco1", "activity change, negative = inhibition": "inactive: -1.87%"}, {"smiles": "O=C(c1ccccc1)N1CCN(c2ccc([N+](=O)[O-])c(NCc3cccnc3)c2)CC1", "activity change, negative = inhibition": "inactive: -5.68%"}, {"smiles": "COc1cccc(CNC(=O)C2CCN(S(=O)(=O)c3cccc4cccnc34)CC2)c1", "Potency": "inconclusive [inhibitor, partial curve, poor fit]"}, {"smiles": "O=C(Nc1ccc(OC(=O)c2ccncc2)cc1)c1ccncc1", "Potency": "inconclusive [inhibitor, full curve, poor fit]"}, {"smiles": "COc1ccccc1N(O)C1CC(=O)N(c2ccc(Br)cc2)C1=O", "note": "(stereo not drawn)", "Potency": "inconclusive [inhibitor, full curve]"}, {"smiles": "COc1cc(-c2nc3n(n2)C(c2ccncc2)C(C(N)=O)=C(C)N3)cc(OC)c1OC", "note": "(stereo not drawn)", "Potency": "inconclusive [inhibitor, single point]"}, {"smiles": "O=[N+]([O-])c1cccc(-c2ccc(/C=N/NC(=S)Nc3ccccc3)o2)c1", "Potency": "inconclusive [inhibitor, full curve, poor fit]"}, {"smiles": "CC(C)[C@H]1COCCS(=O)(=O)N1Cc1cccc(Cl)c1", "activity change, negative = inhibition": "inactive: -9.45%"}, {"smiles": "CCn1cnc2cc(NS(=O)(=O)c3ccc(OC)c(OC)c3)ccc21", "activity change, negative = inhibition": "inactive: -9.44%"}, {"smiles": "FC(F)(F)c1ccc(-c2nnc(-c3cccnc3)o2)cc1", "Potency": "inconclusive [inhibitor, single point]"}, {"smiles": "O=C(Cc1cccs1)Nc1nc(-c2ccc(F)c(F)c2)cs1", "activity change, negative = inhibition": "inactive: 8.64%"}, {"smiles": "Nc1c(C(=O)NCc2ccccc2)nnn1Cc1cccc(Br)c1", "Potency": "inconclusive [inhibitor, single point]"}, {"smiles": "CCOC(=O)C1=C(N)OC2=C(C(=O)CCC2)C1c1ccccc1OCC", "note": "(stereo not drawn)", "Potency": "inconclusive [inhibitor, partial curve, poor fit]"}, {"smiles": "CC(C)(C)C1=NN=C2c3ccccc3C(=O)C21", "note": "(stereo not drawn)", "Potency": "inconclusive [inhibitor, single point]"}, {"smiles": "O=C(CCCOc1ccccc1)Nc1cccnc1", "activity change, negative = inhibition": "inactive: 1.91%"}, {"smiles": "O=c1c2ccccc2c(/C=N/NS(=O)(=O)c2ccccc2)c(O)n1-c1ccccn1", "Potency": "inconclusive [inhibitor, partial curve, poor fit]"}, {"smiles": "CN(C)S(=O)(=O)c1cc(NC(=O)COC(=O)C2CSC3(C)CCC(=O)N23)ccc1Cl", "note": "(stereo not drawn)", "Potency": "inconclusive [inhibitor, full curve, poor fit]"}, {"smiles": "Cc1ccc([C@@H]2[C@@H]3C(=O)N(C)C(=O)[C@@H]3[C@]3(Cc4ccccc4)C(=O)N(Cc4ccccc4)CC(=O)N23)o1", "Potency": "inconclusive [inhibitor, full curve]"}]}]}
